For experiment [1], the target named is human PD-1 (human, UniProt Q15116 25-288). Briefly: cell-based or functional assay.
The target in experiment [2] is T1, human IL-2Rαβγ (high-affinity IL-2 receptor) on cells (human, UniProt P01589 22-272; P14784 27-551; P31785 23-369).
T1 sequence (looked up) 1: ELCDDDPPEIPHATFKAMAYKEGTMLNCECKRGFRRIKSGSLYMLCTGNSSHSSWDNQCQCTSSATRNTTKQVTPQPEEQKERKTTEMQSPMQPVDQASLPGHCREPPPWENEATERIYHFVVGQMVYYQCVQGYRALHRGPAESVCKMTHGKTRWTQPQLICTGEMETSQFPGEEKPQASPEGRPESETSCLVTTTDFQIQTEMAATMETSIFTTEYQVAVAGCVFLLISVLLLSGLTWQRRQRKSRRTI
T1 sequence (looked up) 2: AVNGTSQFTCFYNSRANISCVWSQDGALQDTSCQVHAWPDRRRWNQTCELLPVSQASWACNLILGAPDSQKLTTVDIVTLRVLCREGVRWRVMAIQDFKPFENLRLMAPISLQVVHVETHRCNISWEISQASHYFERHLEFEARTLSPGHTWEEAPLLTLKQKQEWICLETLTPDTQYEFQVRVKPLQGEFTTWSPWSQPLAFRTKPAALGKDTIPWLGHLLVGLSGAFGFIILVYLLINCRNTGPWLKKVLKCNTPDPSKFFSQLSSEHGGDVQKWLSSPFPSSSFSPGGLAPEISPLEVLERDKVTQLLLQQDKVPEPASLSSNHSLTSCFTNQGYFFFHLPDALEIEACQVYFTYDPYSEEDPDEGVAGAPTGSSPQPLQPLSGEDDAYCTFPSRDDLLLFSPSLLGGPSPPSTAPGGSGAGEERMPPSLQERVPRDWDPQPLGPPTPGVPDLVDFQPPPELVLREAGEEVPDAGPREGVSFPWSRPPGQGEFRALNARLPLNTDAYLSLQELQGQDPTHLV
T1 sequence (looked up) 3: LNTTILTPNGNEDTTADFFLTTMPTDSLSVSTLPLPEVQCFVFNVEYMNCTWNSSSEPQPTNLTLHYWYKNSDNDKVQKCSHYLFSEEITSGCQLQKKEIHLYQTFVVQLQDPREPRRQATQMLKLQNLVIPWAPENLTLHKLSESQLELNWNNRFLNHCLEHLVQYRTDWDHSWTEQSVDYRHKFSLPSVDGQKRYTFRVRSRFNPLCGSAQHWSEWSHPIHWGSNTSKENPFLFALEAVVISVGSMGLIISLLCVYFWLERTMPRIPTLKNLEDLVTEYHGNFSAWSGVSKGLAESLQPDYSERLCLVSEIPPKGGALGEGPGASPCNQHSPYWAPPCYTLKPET
Put plainly: cell-based or functional assay.

Experiment [3] deals with T2, recombinant human IL-2Rβγ protein (human, UniProt P14784 27-240; P31785 23-262).
T2 construct: Bought protein
T2 sequence (looked up) 1: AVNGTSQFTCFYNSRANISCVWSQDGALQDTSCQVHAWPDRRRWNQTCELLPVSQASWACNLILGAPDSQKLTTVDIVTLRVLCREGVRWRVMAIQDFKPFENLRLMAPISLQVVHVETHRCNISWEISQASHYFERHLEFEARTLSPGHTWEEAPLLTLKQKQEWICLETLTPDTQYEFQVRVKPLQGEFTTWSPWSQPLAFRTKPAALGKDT
T2 sequence (looked up) 2: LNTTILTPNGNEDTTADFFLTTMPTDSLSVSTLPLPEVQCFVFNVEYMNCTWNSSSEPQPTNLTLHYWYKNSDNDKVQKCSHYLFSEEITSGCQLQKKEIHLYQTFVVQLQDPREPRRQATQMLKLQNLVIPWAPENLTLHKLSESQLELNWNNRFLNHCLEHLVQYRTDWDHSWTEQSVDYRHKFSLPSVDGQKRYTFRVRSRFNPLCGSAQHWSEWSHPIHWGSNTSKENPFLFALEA
Briefly: SPR (BIAcore 8K), bispecific protein captured by anti-human Fc on CM5, IL-2Rβγ in flow. For orientation: Surface plasmon resonance follows binding to a sensor surface in real time, without labels.

This note sets out measurements from patent US20260242437A1 (BEIJING MABWORKS BIOTECH, published 2026).

Sequence of UniProt Q15116 (Q15116 25-288 limits assumed): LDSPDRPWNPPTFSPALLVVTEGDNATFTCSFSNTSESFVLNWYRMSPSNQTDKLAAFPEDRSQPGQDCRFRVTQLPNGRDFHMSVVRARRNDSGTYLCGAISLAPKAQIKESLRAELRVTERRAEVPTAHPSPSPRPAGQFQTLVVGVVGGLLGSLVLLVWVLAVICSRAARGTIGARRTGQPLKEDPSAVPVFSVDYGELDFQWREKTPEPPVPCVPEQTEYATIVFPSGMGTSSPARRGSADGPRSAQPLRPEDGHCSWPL

B1: bispecific recombinant protein 309-5 (other)
heavy 1: QVQLVQSGVEVKKPGASVKVSCKASGYTFTNYYMYWVRQAPGQGLEWMGGINPSNGGTNFNEKFKNRVTLTTDSSTTTAYMELKSLQFDDTAVYYCARRDYRFDMGFDYWGQGTTVTVSSASTKGPSVFPLAPSSKSTSGGTAALGCLVKDYFPEPVTVSWNSGALTSGVHTFPAVLQSSGLYSLSSVVTVPSSSLGTQTYICNVNHKPSNTKVDKKVEPKSCDKTHTCPPCPAPEAAGGPSVFLFPPKPKDTLMISRTPEVTCVVVDVSHEDPEVKFNWYVDGVEVHNAKTKPREEQYNSTYRVVSVLTVLHQDWLNGKEYKCKVSNKALAAPIEKTISKAKGQPREPQVYTLPPSRDELTKNQVSLSCAVKGFYPSDIAVEWESNGQPENNYKTTPPVLDSDGSFFLVSKLTVDKSRWQQGNVFSCSVMHEALHNHYTQKSLSLSP
heavy 2: QVQLVQSGVEVKKPGASVKVSCKASGYTFTNYYMYWVRQAPGQGLEWMGGINPSNGGTNFNEKFKNRVTLTTDSSTTTAYMELKSLQFDDTAVYYCARRDYRFDMGFDYWGQGTTVTVSSASTKGPSVFPLAPSSKSTSGGTAALGCLVKDYFPEPVTVSWNSGALTSGVHTFPAVLQSSGLYSLSSVVTVPSSSLGTQTYICNVNHKPSNTKVDKKV[human IgG1 Fc with L234A L235A P329A T366W (EU numbers) omitted here]GGGGSGGGGSGGGGSAPASSSTKKTQLQLEHLLLDLQMILNGINNYKNPLTRMLTAKFRMPKKATELKHLQCLEEELKPLEEVLNLAQSKNFHLRPRDLISNINVIVLELKGSETTFMCEYADETATIVEFLNRWITFSTSIISTLT
light: EIVLTQSPATLSLSPGERATLSCRASKGVSTSGYSYLHWYQQKPGQAPRLLIYLASYLESGVPARFSGSGSGTDFTLTISSLEPEDFAVYYCQHSRDLPLTFGGGTKVEIKRTVAAPSVFIFPPSDEQLKSGTASVVCLLNNFYPREAKVQWKVDNALQSGNSQESVTEQDSKDSTYSLSSTLTLSKADYEKHKVYACEVTHQGLSSPVTKSFNRGEC
Broadly, the Kd is the equilibrium constant for the complex coming apart. As a reminder, the koff is the first-order rate constant of dissociation. Usually kon stands for the rate constant with which the complex forms. On to B1, for which, in experiment [1], the “EC50 (ng/mL)-PD1+ HEK Blue/IL-2” value was determined as 6.37 ng/mL. In experiment [2], the “EC50 (ng/mL)-PD1- HEK-Blue/IL-2” value was 9680 ng/mL. In experiment [3], the Kd was 3.7 nM, the koff was 0.000428 s⁻¹ and the kon came out at 116000 M⁻¹ s⁻¹.
